According to the supplement of paper PMC11417369:
Some of the results follow.

Test system: PfSIP2 AP2 domain 1 (GST-tagged)
Assay: gcPBM binding intensity (ln(normalized median fluorescence intensity)); higher = stronger DNA binding
Procedure, shortened: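 After 1 h on an Agilent 4 × 180k array of primer-extended double-stranded 36-bp intergenic genomic probes and negative controls, bound GST-tagged P. falciparum DNA-binding domains were detected with Alexa488 anti-GST antibody and scanned at 488 nm. The domains had been expressed in E. coli, and binding took place in 1× PBS with 1% milk, 0.2 mg/ml BSA, 0.5% salmon testes DNA and 0.03% Triton X-100. Binding intensity is the highest Masliner-normalised natural-log median intensity across replicate spots of either probe orientation.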

Sequence | gcPBM binding intensity (ln)
AATTGGAAACAACCAAAAAAATTAAAGTTGTATCCT [CACACA_negctrl_site565] | 6.6
TTGTATATTATATGTACACACAATAAGTTAATATAA [CACACA_site909] | 7.05
TTCCTTTGTCCTAACTGTACTCAAATTTATTAGTGG [XGTACX_site226] | 7.3
ATAATATATTTTTGAACACACAATATAGATTTATAT [CACACA_site7857] | 7.04
TAAATACAAAAATGTACACACATATATATATTTTTA [CACACA_site3503] | 6.99
TAAATTTTAATATGCACACAAAATGTTATATTAAAA [CACACA_site4366] | 7.32
CGGCACATTATATATACACACATATAAATATATACA [CACACA_site8086] | 7.18
TAAATGAAAACCATTAGTACTTATACTGATAAATGT [XGTACX_site763] | 6.69
TATATCTTAATATACACACACACATATATATATATA [CACACA_site4968] | 9.18
TATATAAATATATATACACACAAAAAAAAAAAAAAA [CACACA_site1406] | 7.09
CATATAAAAAATATGGTGCAGTTTTTTTTTTTTTTT | 10.4
TATATATATAATGTTTGTACATATTAAATATATATG [XGTACX_site407] | 8.3
AAAAAAAGTTGATACTGTACTCGTGCATTATGAATA [XGTACX_site5558] | 7.08
CTTATTAAAATTATTTGTACACAATATGTAAAAGTA [XGTACX_site7237] | 6.99
TAATTAAAATTATCTACACACCTTTATAAATATATA [CACACA_site3928] | 6.83
AGGTATTTTCTTGTGACACACATATATATATATATT [CACACA_site2220] | 7.37
TTTTGCAATAATGTTGCACACTAAATAGTCATATAT [CACACA_site7977] | 7.61
TTTATATTGATATATACACACATATACATCCTATTT [CACACA_site7442] | 6.94
ATTATTGTTGTTCATGTACACACTATAATAAAAGCA [CACACA_site4168] | 7.37

Sequence | gcPBM binding intensity (ln)
ATTAATTATTTCAATGCATGTGAACACTATATATAA [TGCATGCA_site600] | 7.13
ATATATATATATATATGTACATATTTCTCCATTTTT [XGTACX_site2869] | 9.68
CATATTTTTATAAATTGTACGTATATTATATATATA [XGTACX_site1816] | 7.99
GCATTGTCCATGCGCACACACTACTAGAATAATATG [CACACA_site5932] | 7.48
AAACCGTGGGAGCACACACACACACCGACACATATA [CACACA_site4338] | 6.99
TGCAATTGTAAAGGCGCACACATATATATATATATA [CACACA_site4894] | 9.4
GTTTTTTATAATTGTAGTACAAGAAGATATTTTTAT [XGTACX_site5443] | 7.44
CCATCTAAACACAACTCGAGTTGGATGTGTGAACTT [XGTACX_negctrl_site83] | 6.63
ATCAAAAGAAAACACACACACATACAGATATATATA [CACACA_site5974] | 7.24
TCCATTTATAAATTAGCATGCAATCTATGTCTGATA [TGCATGCA_site1045] | 6.81
AATTAATGGGTACATACACACATATATACCTACATA [CACACA_site4572] | 7.05
ATATATCAATATAAAAGTACAAACAAAAAATAATCA [XGTACX_site7559] | 7.06
GATATATACTCCATCACACACCAAAAAGAAAAAAGA [CACACA_site7242] | 7.34
CACAGACACGGACACACACACACACCCATATATATA [CACACA_site4354] | 7.42
ATACAAGAATTAAACACACACAAAATATAAATTCTT [CACACA_site3005] | 6.97
AGCAACCTGAAAAAATTACTCTTTCTTAAACAAATT [XGTACX_negctrl_site266] | 7.02
ACCTGTAAAAATGTTTATATATATATATATATATAT [CACACA_negctrl_site1500] | 9.8
TTAAGGATTAAGGTGTGTACATATAAATATTATATA [XGTACX_site7532] | 7.17
AAAAAAAAAAAAAATTGTACATAATAAAAATATGGA [XGTACX_site3189] | 7

Sequence | gcPBM binding intensity (ln)
TGTTTATTCTTTAAATATTATTCAAATACTACAAGT [CACACA_negctrl_site746] | 7.04
CGGCACATTATATATACACACATATAAATAAATACA [CACACA_site4477] | 7.2
TATATATATAAGTGCACACTGAACCAAGAAAATTAT [CACACA_site3008] | 10.5
GGATTGATAAGTGGTACACACATATAGATTATAGAT [CACACA_site7367] | 7.27
AATATTAAATGAAAAAGTACAAACAGTCCTATATTA [XGTACX_site1926] | 7
ATTTATATAAAGAATGTACACACAGAAATGCACCCA [CACACA_site8715] | 11.8
CGTATGCACAAATTATGTACTTATATATATATATAT [XGTACX_site2348] | 9.6
AAAAAAAAAAAACATACACACAAATAAATACATACA [CACACA_site6073] | 6.98
TAAATATATATATGTGTGCACTTCTTCATTTTAATA [GTGCAC_site9537] | 9.97
TTTTGTACAAAAATAATGCACACTATATCAAGTTTT [CACACA_site3595] | 7.48
ATATAAAAAGGAAAAAGTACAAAAAAATGTTTGTGA [XGTACX_site8552] | 6.82
AAGAAAATATATTCACATGAAGAATTAAAATAAAAC [TGCATGCA_negctrl_site119] | 7.14
TATGTGCCAAAACACACACACATATATATATATATA [CACACA_site469] | 9.89
TAGGCCTTAAATCGTGTGCACTTTTTTTTTTTTTTT | 10.7
CAAATTATTATTTAAGCACACATGTTTATTTTTTTT [CACACA_site2672] | 6.68
TTTTTTTTTTTTTTTTTTGGTGAGAGAAGAAAATTC [CACACA_negctrl_site950] | 7.02
AAGCATACATCAAGCACACACACACCCACACCCACA [CACACA_site372] | 6.98
AAATATATCAATATATATATATATATATATATATAT [XGTACX_negctrl_site544] | 9.51
TATGGTAAATACAACACACACACATATGTATTTATA [CACACA_site4666] | 7.05
